{"source": "the RNAGym collection of RNA variant scans (doi:10.7554/elife.90254)", "parents": {"B1": {"name": "OR4K15 (parent)", "chain": "GUUAACGGUCAUAGGCCAUGGAAACUAGGAGCACCAUUUCGCUGCCAGUGAAGAAAUGAACAAAGAAAAUCUGGGCCAGGCAGGCAUCAAAAGAAAUAGUCUUGCGCUCAACCAGAAAGUCUGUAAUCAUUUUAAGGGUA"}}, "note": "Read counts are not given, so values of variants with three or more changes are uncertain."}
{"variants_of": "B1", "test": "self-cleavage, relative activity (ratio to wild type); higher = more cleavage; in vitro, sequencing; the parent is a self-cleaving ribozyme"}
{"variant": "GUUAACGGUCAUAGGCCAUGGAAACUAGGAGCACCAUUCCGCUGCCAGAGAAGAAAUGAACAAAGAAAAUCUGGGCCAGGCGGGCAUCAAAAGAAAUAGUCUUGCGCUCAACCAGAAAGUCUGUAAUCAUUUUAAGGGUA", "note": "[U39C U49A A82G]", "self-cleavage": 0.52}
{"variant": "GUUAACGGUCAUAGGCCAUGGAAACUAGGAGCACCAUUCCGCUGCCAGUGAAGAAACGAGCAAAGAAAAUCUGGGCCAGGCAGGCAUCAAAAGAAAUAGUCUUGCGCUCAACCAGAAAGUCUGUAAUCACUUUAAGGGUA", "note": "[U39C U57C A60G U130C]", "self-cleavage": 1.38}
{"variant": "GUUAACGGUCAUAGGCCAUGGAAACUAGGAGCACCAUUCCGCUGCCAGUGAAGAAAUGAACAAAGAAAAACCGGACCAGGCAGGCAUCAAAAGAAAUAGUCUUGCGCUCAACCAGAGAGUCUGUAAUCAUUUUAAGGGUA", "note": "[U39C U70A U72C G75A A117G]", "self-cleavage": 0.12}
{"variant": "GUUAACGGUCAUAGGCCAUGGAAACUAGGAGCACCAUUCCGCUGCCAGUGAAGAAAUGAACAAAGAAAACCUGGGCCAGGCAGGCACCAAAAGAAAUAGUCUUGCGCUCAACCAGAAAGUCUGUAAUCAUUAUAAGGGUA", "note": "[U39C U70C U87C U132A]", "self-cleavage": 0.86}
{"variant": "GUUAACGGUCAUAGGCCAUGGAAACUAGGAGCACCAUUCCGCUGCCAGUGAAGAAAUGAACAAAGAAAACCUGGGCCAGGCAGGCAUCAAAAGAAAUAGUCUUGCGCUCAACCAGAAAGUCUGUAAUCAUUUUAAAGGUA", "note": "[U39C U70C G136A]", "self-cleavage": 1.36}
{"variant": "GUUAACGGUCAUAGGCCAUGGAAACUAGGAGCACCAUUCCGCUGCCAGUGAAGAAAUGAACAAAGAAAAUCCGGGCCUGGCAGGCAUCAAAAGAAAUAGUCUUGCGCUCAACCAGAAAGUCUGUAAUCAUUUUAAGGGUA", "note": "[U39C U72C A78U]", "self-cleavage": 0.14}
{"variant": "GUUAACGGUCAUAGGCCAUGGAAACUAGGAGCACCAUUCCGCUGCCAGCGAAGAAAUGAACAAAGAAAAUCUGGGCCAGGCAGGCAUCGAAAGAAAUAGUCUUGCGCCCAACCAGAAAGUCUGUAAUCAUUUUAGGGGUA", "note": "[U39C U49C A89G U108C A135G]", "self-cleavage": 0}
{"variant": "GUUAACGGUCAUAGGCCAUGGAAACUAGGAGCACCAUUCCGCUGCCAGUGAAGAAAUGAACAAAGAAAAUCAGGGCCAGGCAGGCAUCAAAAGAAAUAGCCUUGCGCUCAACCAGAAAGUCUGUAAUCAUUUUAAGGGUA", "note": "[U39C U72A U100C]", "self-cleavage": 0.29}
{"variant": "GUUAACGGUCAUAGGCCAUGGAAACUAGGAGCACCAUUCCGCCGCCAGUGAAGAAAUGAACAAAGAGAAUCUGGGCCAGGCAGGCAUCAAAAGAAAUAGUCUUGCGCUCAACCAGAAAGUCUGUAAUCAUUUUAAGGGUA", "note": "[U39C U43C A67G]", "self-cleavage": 0.75}
{"variant": "GUUAACGGUCAUAGGCCAUGGAAACUAGGAGCACCAUUCCGCUGCCAGCGAAGAAAUGAACAGAGAAAAUCUGGGCCAGGCAAGCAUCAGAAGAAAUAGUCCUGCGCUCGACCAGAAAGUCUGUAAUCAUUUUAAGGGUA", "note": "[U39C U49C A63G G83A A90G U102C A110G]", "self-cleavage": 0.04}
{"variant": "GUUAACGGUCAUAGGCCAUGGAAACUAGGAGCACCAUUCCGCCGCCAGCGAAAAAAUGAACAAAGAAAAUCUGGGCCAGGCAGGCAUCAAAAGAAAUAGUCUUGCGCCCAACCAGAGAGUCUGUAAUCAUUUUAAGGGUA", "note": "[U39C U43C U49C G53A U108C A117G]", "self-cleavage": 0.01}
{"variant": "GUUAACGGUCAUAGGCCAUGGAAACUAGGAGCACCAUUCCGCUGCCAGCGAAGAAAUGAACAAUGAAAAUCUGGGCCAGGCAGGCAUCAAAAGAAAUAGUCUUGCGCUCAACCAGAAAGUCUGUAAUCAUUUUAAGGGUA", "note": "[U39C U49C A64U]", "self-cleavage": 0.65}
{"variant": "GUUAACGGUCAUAGGCCAUGGAAACUAGGAGCACCAUUCCGCUGCCAGUGAAGAAACGAACAAAGAAAAUCUGGGCCAGGCAGGCAUCAAAAGAAAUAGUCUUGCGCUCAACCAGAAGGUCUGUAAUCAUUUUAAGGGUA", "note": "[U39C U57C A118G]", "self-cleavage": 0.74}
{"variant": "GUUAACGGUCAUAGGCCAUGGAAACUAGGAGCACCAUUCCGCUGCCAGUGAAGAAACGAACAGAGAAAAUCAGGGCCAGGCAGGCAUCAAAAGAAAUAGUCUUGCGCUCAACCAGAAAGUCUGUAAUCAUUUUAAGGGUA", "note": "[U39C U57C A63G U72A]", "self-cleavage": 0.5}
{"variant": "GUUAACGGUCAUAGGCCAUGGAAACUAGGAGCACCAUUCCGCUGCCAGUGAAGAAACGAACAAAGAAAAUCAGGGCCAGGCAGGCAUCAAAAGGAAUAGUCUUGCGCUUAACCAGAAAGUCUGUAAUCAUUCUAAGGGUA", "note": "[U39C U57C U72A A94G C109U U132C]", "self-cleavage": 0.04}
{"variant": "GUUAACGGUCAUAGGCCAUGGAAACUAGGAGCACCAUUCCGCUGCCAGCGAAGGAAUGAACAAAGAAAAUCUGGGCCAGGCAGGCAUCAAAAGAAAUAGUCUUGCGCUCAACCAGGAAGUCUGUAAUCAUUUUAAGGGUA", "note": "[U39C U49C A54G A116G]", "self-cleavage": 0.22}
{"variant": "GUUAACGGUCAUAGGCCAUGGAAACUAGGAGCACCAUUCCGCUGCCAGAGAAGAAAUGAACAAAGAAAAUCUGGGCCAGGCAGGCAUCAAAAGAAGUAGUCUUGCGCUCAACCAGAAAGUCUGUAAUCAUUUUAAGGGUA", "note": "[U39C U49A A96G]", "self-cleavage": 1.97}
{"variant": "GUUAACGGUCAUAGGCCAUGGAAACUAGGAGCACCAUUCCGCUGCCAGCGAAGAAAUGAACAAAGAAAAUCUGGGCCAGGCAGGCAUCAAAAGAAAUAGUCUUGCGCUCAACCAGAAAGCCUGUAAUCACUUUAAGGGUA", "note": "[U39C U49C U120C U130C]", "self-cleavage": 0.54}
{"variant": "GUUAACGGUCAUAGGCCAUGGAAACUAGGAGCACCAUUCCGCUGCCAGUGAAGAAAUGAACAAAGAAAAUCAGGGCCAGGCAGGCAUCAAAAGAAAUAGUCCUGCGCCCAACCGGCAAGUCUGUAAUCAUUUUAAGGGUA", "note": "[U39C U72A U102C U108C A114G A116C]", "self-cleavage": 0}
{"variant": "GUUAACGGUCAUAGGCCAUGGAAACUAGGAGCACCAUUCCGCUGCCAGUGAAGAAACGAACAAAGAGAAUCUGGGCCAGGCAGGCAUCAAAAGAAAUAGUCUUGCGCUCAACCAGAAAGUCUGUAAUCAUUUUAGGGGUA", "note": "[U39C U57C A67G A135G]", "self-cleavage": 1.87}
{"variant": "GUUAACGGUCAUAGGCCAUGGAAACUAGGAGCACCAUUCCGCUGCCAGUGAAGAAAUGAACAAAGAAAACCUGGGCCAGGCAGGCAUCAAAAGAAAUAGUCUUGCGCUCAACCAGAAAGUCUGUAAUCAUUUUAAGGGCA", "note": "[U39C U70C U139C]", "self-cleavage": 1.38}
